Screen size: about 110,000 compounds; about 230 (0.21%) showed an effect of 50% or more. Some of the results follow.
Biological target: DPAP1 (Plasmodium falciparum, UniProt Q8IIJ9)
Assay: primary screen, percent inhibition; read by cleavage of a fluorogenic dipeptide substrate; higher = more effect of the substance
Design: species or system P. falciparum D10 trophozoite lysates; single well
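Also: 30 min substrate incubation versus DMSO and 10 µM JCP410 controls.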

Chain of DPAP1 (Q8IIJ9 whole entry, looked up): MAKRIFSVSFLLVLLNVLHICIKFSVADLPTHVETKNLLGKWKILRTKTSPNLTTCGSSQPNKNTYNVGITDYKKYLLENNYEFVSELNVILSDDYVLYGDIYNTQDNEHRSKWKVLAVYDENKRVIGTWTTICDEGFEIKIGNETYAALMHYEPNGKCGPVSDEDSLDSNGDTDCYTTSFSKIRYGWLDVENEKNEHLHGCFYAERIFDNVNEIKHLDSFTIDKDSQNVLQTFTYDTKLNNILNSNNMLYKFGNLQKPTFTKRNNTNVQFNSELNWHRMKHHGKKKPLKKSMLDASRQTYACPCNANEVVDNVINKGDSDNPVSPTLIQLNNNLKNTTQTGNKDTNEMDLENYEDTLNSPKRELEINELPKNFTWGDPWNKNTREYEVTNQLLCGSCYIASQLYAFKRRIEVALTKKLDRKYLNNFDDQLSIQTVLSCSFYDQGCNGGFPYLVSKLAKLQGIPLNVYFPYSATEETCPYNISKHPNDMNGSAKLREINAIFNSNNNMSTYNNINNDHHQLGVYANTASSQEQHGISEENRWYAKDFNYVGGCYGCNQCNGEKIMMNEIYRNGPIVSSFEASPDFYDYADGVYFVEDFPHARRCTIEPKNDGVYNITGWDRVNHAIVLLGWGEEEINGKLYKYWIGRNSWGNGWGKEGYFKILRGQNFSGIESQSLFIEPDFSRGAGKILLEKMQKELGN

**Q.** Which “% Inhibition @ 10 uM” value does the source give for `c1nnnn1CCCN1CCOCC1` here?
**A.** 5.96%

**Q.** `CC1CCCCN1C(=O)c1cc(-c2cccc(Cl)c2)on1` (centres unmarked) was tested. Which “% Inhibition @ 10 uM” value did it give?
**A.** -5.09%

**Q.** `O=C(CCCn1c2ccccc2c2cnnc(O)c21)NCCC1=CCCCC1` was tested. Which “% Inhibition @ 10 uM” value did it give?
**A.** -5.63%

**Q.** Which “% Inhibition @ 10 uM” value does the source give for `CC(=O)NCCc1c(C(=O)O)[nH]c2ccc(OCc3ccccc3)cc12` here?
**A.** 6.43%

**Q.** With `COc1cc(S(=O)(=O)N2CCN=C2c2ccccc2)ccc1Cl` as the molecule, how does the “% Inhibition @ 10 uM” value read?
**A.** -5.49%

**Q.** How did the “% Inhibition @ 10 uM” value turn out when `CN1C(=O)C(=Cc2cn(CC(=O)NCC3CCCO3)c3ccccc23)C(=O)N(C)C1=O` (centres unmarked) was run?
**A.** 2.17%

**Q.** `Cc1onc(-c2ccccc2)c1C(=O)NCc1cccnc1` was tested. Which “% Inhibition @ 10 uM” value did it give?
**A.** 1.28%

**Q.** For `COCCNc1ncnc2c1cnn2C`, which “% Inhibition @ 10 uM” value is on record?
**A.** 3.99%

**Q.** For `COC(=O)C1=C(O)/C(=C\c2cccc3ccccc23)N=C1C`, which “% Inhibition @ 10 uM” value is on record?
**A.** 5%

**Q.** Which “% Inhibition @ 10 uM” value does the source give for `CCc1nnc(NC(=O)CSc2ccc(-c3ccncc3)nn2)s1` here?
**A.** 2.75%

**Q.** `COC(=O)c1cc2oc(C)cc2n1Cc1nc(-c2cccc(Br)c2)oc1C` was tested. Which “% Inhibition @ 10 uM” value did it give?
**A.** -11.4%

**Q.** For `CC1=C(C(=O)Nc2ccc(F)cc2F)C(c2ccc(N(C)C)cc2)C2=C(O)CCCC2=N1` (centres unmarked), which “% Inhibition @ 10 uM” value is on record?
**A.** -3.46%

**Q.** With `COc1ccc(OC)c(/C=C2/C=C(c3ccc(C)cc3)OC2=O)c1` as the molecule, how does the “% Inhibition @ 10 uM” value read?
**A.** -3.41%

**Q.** For `COCCn1c(CCC(=O)O)ccc1-c1ccc(C)cc1`, which “% Inhibition @ 10 uM” value is on record?
**A.** -6.89%

**Q.** Which “% Inhibition @ 10 uM” value does the source give for `CCn1c(SC)nc2sc3c(c2c1=O)CCCC3` here?
**A.** 3.01%

**Q.** With `O=C(O)c1nccnc1C(=O)Nc1cccc2ccccc12` as the molecule, how does the “% Inhibition @ 10 uM” value read?
**A.** -2.18%

**Q.** Which “% Inhibition @ 10 uM” value does the source give for `COc1ccc(C2=N/C(=C\c3ccc(C)o3)C(=O)O2)cc1Br` here?
**A.** 11.4%

**Q.** For `CC(NC(=O)COc1ccc2ccccc2c1Br)c1ccccc1` (centres unmarked), which “% Inhibition @ 10 uM” value is on record?
**A.** -3.25%

**Q.** With `COc1ccc(CN2CCN(Cc3cccnc3)CC2)cc1Br` as the molecule, how does the “% Inhibition @ 10 uM” value read?
**A.** -9.29%

**Q.** Which “% Inhibition @ 10 uM” value does the source give for `O=c1c(Cl)c(N2CCCC2)cnn1-c1nc2ccccc2s1` here?
**A.** 9.59%

**Q.** Which “% Inhibition @ 10 uM” value does the source give for `CCCCCNC(=O)c1ccc(Cl)cc1Cl` here?
**A.** -0.294%

**Q.** Which “% Inhibition @ 10 uM” value does the source give for `COc1ccc(-c2cn3nc(N4CCCC(C(=O)NCCc5ccc(Cl)cc5)C4)sc3n2)cc1` (centres unmarked) here?
**A.** 1.97%

**Q.** With `CCOC(=O)C1=CN(C)C=C(C(=O)OCC)C1c1cc(Br)c(O)c(OC)c1` as the molecule, how does the “% Inhibition @ 10 uM” value read?
**A.** 1.86%

**Q.** Which “% Inhibition @ 10 uM” value does the source give for `Cn1cnc2c1c(=O)n(Cc1ccccc1)c(=O)n2C` here?
**A.** 1.29%

**Q.** How did the “% Inhibition @ 10 uM” value turn out when `COc1ccc(C(=O)c2ccc(C)cc2)cc1` was run?
**A.** 4.41%

**Q.** Which “% Inhibition @ 10 uM” value does the source give for `OC1(c2ccc(Br)cc2)CCN(Cc2ccc(F)cc2F)CC1` here?
**A.** 1.88%

**Q.** Which “% Inhibition @ 10 uM” value does the source give for `COc1ccccc1NC(=O)NC1CCCCC1` here?
**A.** 1.35%

**Q.** For `CCC(NC(=O)C(NC(=O)c1ccc(-c2ccccc2Cl)c(Cl)c1)C1CCCCC1)C(=O)c1nc2ncccc2o1` (centres unmarked), which “% Inhibition @ 10 uM” value is on record?
**A.** -0.207%

**Q.** How did the “% Inhibition @ 10 uM” value turn out when `CCOc1ccc2[nH]c(SCC(=O)Nc3c(-c4ccccc4)nc4ccccn34)nc2c1` was run?
**A.** 2.7%

— PMC6919601, “Identification of Plasmodium dipeptidyl aminopeptidase allosteric inhibitors by high throughput screening” (PLoS ONE, 2019)
